Experimental data from the supplement of paper PMC4967469.
A lower IC50 marks a more sensitive line; a fit beyond the top or the lowest dose is shown as a bound at that dose. For AUC the same curve is integrated over the 256-fold range of doses and scaled to a fraction; it is 1 without any effect and falls as sensitivity rises.

Compound: N#CC[C@H](C1CCCC1)n1cc(-c2ncnc3[nH]ccc23)cn1 [Ruxolitinib]
Experiment: Viability of human cancer cell lines after 72 h of drug (GDSC screen)
Method: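 Human cancer cell lines in 384-well plates, medium with 10% serum, drug for 72 h over a 256-fold dose range (nine 2-fold or five 4-fold steps up to the top dose). Adherent lines were fixed and stained with the nucleic acid dye Syto60, suspension lines read with resazurin; signal relative to control wells, capped at 0 and 100%. One two-parameter sigmoid per drug and line, fitted in a mixed model over all curves with the slope shared within a line.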

Row | Cell Line | AUC | IC50
1 | RERF-GC-1B (stomach, adherent, top dose 5.24 µM) | 0.983 | > 5.24 µM
2 | NCI-H2444 (non-small cell lung carcinoma, adherent, top dose 5.24 µM) | 0.988 | > 5.24 µM
3 | CHSA0011 (chondrosarcoma, adherent, top dose 5.24 µM) | 0.978 | > 5.24 µM
4 | no-10 (glioma, adherent, top dose 5.24 µM) | 0.978 | > 5.24 µM
5 | NCI-H1975 (lung adenocarcinoma, adherent, top dose 5.24 µM) | 0.974 | > 5.24 µM
6 | BHT-101 (thyroid, adherent, top dose 5.24 µM) | 0.982 | > 5.24 µM
7 | HuP-T3 (pancreas, adherent, top dose 5.24 µM) | 0.979 | > 5.24 µM
8 | TOV-21G (ovary, adherent, top dose 5.24 µM) | 0.976 | > 5.24 µM
9 | SF539 (glioma, adherent, top dose 5.24 µM) | 0.99 | > 5.24 µM
10 | RD (rhabdomyosarcoma, adherent, top dose 5.24 µM) | 0.985 | > 5.24 µM
11 | NCI-H1703 (lung adenocarcinoma, adherent, top dose 5.24 µM) | 0.97 | > 5.24 µM
12 | MOG-G-CCM (glioma, adherent, top dose 5.24 µM) | 0.932 | > 5.24 µM
13 | NCI-H596 (lung adenocarcinoma, adherent, top dose 5.24 µM) | 0.957 | > 5.24 µM
14 | CAL-54 (kidney, adherent, top dose 5.24 µM) | 0.888 | > 5.24 µM
15 | SU-DHL-10 (B-cell lymphoma, suspension, top dose 5.24 µM) | 0.998 | > 5.24 µM
16 | NCI-H2052 (mesothelioma, adherent, top dose 5.24 µM) | 0.977 | > 5.24 µM

Row | Cell Line | AUC | IC50
17 | SW1088 (glioma, adherent, top dose 5.24 µM) | 0.982 | > 5.24 µM
18 | PE/CA-PJ15 (head and neck, adherent, top dose 5.24 µM) | 0.983 | > 5.24 µM
19 | HGC-27 (stomach, adherent, top dose 5.24 µM) | 0.99 | > 5.24 µM
20 | MKN45 (stomach, adherent, top dose 5.24 µM) | 0.981 | > 5.24 µM
21 | NCI-H2029 (small cell lung carcinoma, adherent, top dose 5.24 µM) | 0.992 | > 5.24 µM
22 | FADU (head and neck, adherent, top dose 5.24 µM) | 0.988 | > 5.24 µM
23 | KYSE-510 (oesophagus, adherent, top dose 5.24 µM) | 0.992 | > 5.24 µM
24 | LB2241-RCC (kidney, adherent, top dose 5.24 µM) | 0.984 | > 5.24 µM
25 | NCI-H2452 (mesothelioma, adherent, top dose 5.24 µM) | 0.984 | > 5.24 µM
26 | SW948 (large intestine, adherent, top dose 5.24 µM) | 0.981 | > 5.24 µM
27 | NCI-H841 (small cell lung carcinoma, adherent, top dose 5.24 µM) | 0.976 | > 5.24 µM
28 | AMO-1 (haematopoietic neoplasm, suspension, top dose 5.24 µM) | 0.977 | > 5.24 µM
29 | GR-ST (lymphoblastic leukaemia, suspension, top dose 5.24 µM) | 0.975 | > 5.24 µM
30 | 639-V (bladder, adherent, top dose 5.24 µM) | 0.992 | > 5.24 µM
31 | Saos-2 (osteosarcoma, adherent, top dose 5.24 µM) | 0.981 | > 5.24 µM
32 | Becker (glioma, adherent, top dose 5.24 µM) | 0.983 | > 5.24 µM
